Data from the supplement of paper PMC4967469.
pIC50: −log10 of the molar value. Lines with a small IC50 respond at low doses; fits outside the tested doses are given as limits. For AUC the same curve is integrated over the 256-fold range of doses and scaled to a fraction; the more sensitive the line, the further below 1. The top dose, if marked as inferred, comes from the curve model; the source does not state it.

Assays:
Experiment in all cases: Viability of human cancer cell lines after 72 h of drug (GDSC screen)
AG-014699 = compound: CNCc1ccc(-c2[nH]c3cc(F)cc4c3c2CCNC4=O)cc1 [AG-014699]; conditions: top dose 5 µM; top dose inferred
Experimental: (§1)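 Human cancer cell lines in 384-well plates, medium with 10% serum, drug for 72 h over a 256-fold dose range (nine 2-fold or five 4-fold steps up to the top dose). Adherent lines were fixed and stained with the nucleic acid dye Syto60, suspension lines read with resazurin; signal relative to control wells, capped at 0 and 100%. One two-parameter sigmoid per drug and line, fitted in a mixed model over all curves with the slope shared within a line.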

EHT 1864 = compound: O=c1cc(CN2CCOCC2)occ1OCCCCCSc1ccnc2cc(C(F)(F)F)ccc12 [EHT 1864]; conditions: top dose 10 µM; top dose inferred
Experimental: as §1

QL-XI-92 = compound: C=CC(=O)Nc1cc(NC(=O)c2ccc(C)c(NC(=O)c3ccno3)c2)cc(C(F)(F)F)c1 [QL-XI-92]; conditions: top dose 10.24 µM; top dose inferred
Experimental: as §1

WHI-P97 = compound: COc1cc2ncnc(Nc3cc(Br)c(O)c(Br)c3)c2cc1OC [WHI-P97]; conditions: top dose 10.24 µM; top dose inferred
Experimental: as §1

XL-184 = compound: COc1cc2nccc(Oc3ccc(NC(=O)C4(C(=O)Nc5ccc(F)cc5)CC4)cc3)c2cc1OC [XL-184]; conditions: top dose 5.12 µM; top dose inferred
Experimental: as §1

NU-7441 = compound: O=c1cc(N2CCOCC2)oc2c(-c3cccc4c3sc3ccccc34)cccc12 [NU-7441]; conditions: top dose 2 µM; top dose inferred
Experimental: as §1

Phenformin = compound: N=C(N)NC(=N)NCCc1ccccc1 [Phenformin]; conditions: top dose 4000 µM; top dose inferred
Experimental: as §1

Vinorelbine = compound: CCC1=C[C@@H]2CN(C1)Cc1c([nH]c3ccccc13)[C@@](C(=O)OC)(c1cc3c(cc1OC)N(C)[C@H]1[C@@](O)(C(=O)OC)[C@H](OC(C)=O)[C@]4(CC)C=CCN5CC[C@]31[C@@H]54)C2 [Vinorelbine]; conditions: top dose 0.064 µM; top dose inferred
Experimental: as §1

Cell Line | AUC (AG-014699) | pIC50 (AG-014699) | AUC (EHT 1864) | pIC50 (EHT 1864) | AUC (QL-XI-92) | pIC50 (QL-XI-92) | AUC (WHI-P97) | pIC50 (WHI-P97) | AUC (XL-184) | pIC50 (XL-184) | AUC (NU-7441) | pIC50 (NU-7441) | AUC (Phenformin) | pIC50 (Phenformin) | AUC (Vinorelbine) | pIC50 (Vinorelbine)
DAN-G (pancreas, adherent) | 0.976 | < 5.30 | 0.992 | < 5.00 | 0.984 | < 4.99 | 0.991 | < 4.99 | 0.97 | < 5.29 | 0.963 | < 5.70 | 0.785 | 2.83 | 0.985 | < 7.19
DU-145 (prostate, adherent) | 0.935 | < 5.30 | 0.974 | < 5.00 | 0.961 | < 4.99 | 0.972 | < 4.99 | 0.98 | < 5.29 | 0.984 | < 5.70 | 0.969 | < 2.40 | 0.539 | 8.29
EKVX (lung adenocarcinoma, adherent) | 0.939 | < 5.30 | 0.923 | < 5.00 | 0.97 | < 4.99 | 0.85 | < 4.99 | 0.958 | < 5.29 | 0.863 | < 5.70 | 0.672 | 2.88 | 0.88 | < 7.19
GAMG (glioma, adherent) | 0.903 | < 5.30 | 0.942 | < 5.00 | 0.843 | 5.11 | 0.985 | < 4.99 | 0.898 | < 5.29 | 0.91 | < 5.70 | 0.781 | 2.76 | 0.655 | 7.96
H2591 (mesothelioma, adherent) | 0.967 | < 5.30 | 0.919 | < 5.00 | 0.976 | < 4.99 | 0.96 | < 4.99 | 0.922 | < 5.29 | 0.963 | < 5.70 | 0.962 | < 2.40 | 0.699 | 7.76
H3255 (lung adenocarcinoma, adherent) | 0.983 | < 5.30 | 0.967 | < 5.00 | 0.98 | < 4.99 | 0.6 | 5.90 | 0.982 | < 5.29 | 0.958 | < 5.70 | 0.955 | < 2.40 | 0.548 | 8.26
HCC1806 (breast, adherent) | 0.965 | < 5.30 | 0.978 | < 5.00 | 0.954 | < 4.99 | 0.946 | < 4.99 | 0.952 | < 5.29 | 0.989 | < 5.70 | 0.668 | 3.15 | 0.516 | 8.36
HDQ-P1 (breast, adherent) | 0.984 | < 5.30 | 0.967 | < 5.00 | 0.973 | < 4.99 | 0.965 | < 4.99 | 0.974 | < 5.29 | 0.975 | < 5.70 | 0.817 | 2.55 | 0.785 | 7.48
